# In patent publication US20250177376A1, “ALPHA 2 ADRENERGIC RECEPTOR BLOCKADE FOR THE TREATMENT OF C. DIFFICILE COLITIS” (University of Virginia Patent Foundation, priority 2022, published 2025):
# Tested on: norepinephrine
# Experiment: Norepinephrine levels in cecal tissue of CDI mice
# Conditions: 2 days post infection; 6-OHDA on days 8, 7 and 6 prior to infection
# Method: To test the role of the sympathetic nervous system in C. difficile infection (CDI) disease progression, a mouse model of infection was employed. Prior to infection, mice are administered 6-hydroxydopamine (6-OHDA) to peripherally destroy sympathetic termini.
smiles,measurement,value
"NCCc1cc(O)c(O)cc1O [6-OHDA, 6-hydroxydopamine]",levels of norepinephrine in cecal tissue,appreciably reduced
